Among all 360,000 compounds or so, about 16,000 (4.4%) were called active. Inconclusive means that the source gave no clear call. Such entries were picked first, then a sample of the others. Calls follow the shape of the dose curve; as a rule, active = well fitted inhibition curve with a large enough effect; inconclusive = small, poorly fitted or top-dose-only effect; inactive = no such curve, though single readings can be large or run the other way. A potency beside an inconclusive call is a rough fit, not a confirmed value.
target: Bromodomain adjacent to zinc finger domain protein 2B (Homo sapiens) (UniProt Q9UIF8); assay: qHTS Assay for Inhibitors of BAZ2B; conditions: AlphaScreen BAZ2B-H3K14Ac peptide displacement; activity change, negative = inhibition: at 114 µM (top of the series); also: nearly all actives have a fitted effect of over 60% in size
UniProt Q9UIF8, sequence (Q9UIF8 whole entry, looked up, the tested form may be a part): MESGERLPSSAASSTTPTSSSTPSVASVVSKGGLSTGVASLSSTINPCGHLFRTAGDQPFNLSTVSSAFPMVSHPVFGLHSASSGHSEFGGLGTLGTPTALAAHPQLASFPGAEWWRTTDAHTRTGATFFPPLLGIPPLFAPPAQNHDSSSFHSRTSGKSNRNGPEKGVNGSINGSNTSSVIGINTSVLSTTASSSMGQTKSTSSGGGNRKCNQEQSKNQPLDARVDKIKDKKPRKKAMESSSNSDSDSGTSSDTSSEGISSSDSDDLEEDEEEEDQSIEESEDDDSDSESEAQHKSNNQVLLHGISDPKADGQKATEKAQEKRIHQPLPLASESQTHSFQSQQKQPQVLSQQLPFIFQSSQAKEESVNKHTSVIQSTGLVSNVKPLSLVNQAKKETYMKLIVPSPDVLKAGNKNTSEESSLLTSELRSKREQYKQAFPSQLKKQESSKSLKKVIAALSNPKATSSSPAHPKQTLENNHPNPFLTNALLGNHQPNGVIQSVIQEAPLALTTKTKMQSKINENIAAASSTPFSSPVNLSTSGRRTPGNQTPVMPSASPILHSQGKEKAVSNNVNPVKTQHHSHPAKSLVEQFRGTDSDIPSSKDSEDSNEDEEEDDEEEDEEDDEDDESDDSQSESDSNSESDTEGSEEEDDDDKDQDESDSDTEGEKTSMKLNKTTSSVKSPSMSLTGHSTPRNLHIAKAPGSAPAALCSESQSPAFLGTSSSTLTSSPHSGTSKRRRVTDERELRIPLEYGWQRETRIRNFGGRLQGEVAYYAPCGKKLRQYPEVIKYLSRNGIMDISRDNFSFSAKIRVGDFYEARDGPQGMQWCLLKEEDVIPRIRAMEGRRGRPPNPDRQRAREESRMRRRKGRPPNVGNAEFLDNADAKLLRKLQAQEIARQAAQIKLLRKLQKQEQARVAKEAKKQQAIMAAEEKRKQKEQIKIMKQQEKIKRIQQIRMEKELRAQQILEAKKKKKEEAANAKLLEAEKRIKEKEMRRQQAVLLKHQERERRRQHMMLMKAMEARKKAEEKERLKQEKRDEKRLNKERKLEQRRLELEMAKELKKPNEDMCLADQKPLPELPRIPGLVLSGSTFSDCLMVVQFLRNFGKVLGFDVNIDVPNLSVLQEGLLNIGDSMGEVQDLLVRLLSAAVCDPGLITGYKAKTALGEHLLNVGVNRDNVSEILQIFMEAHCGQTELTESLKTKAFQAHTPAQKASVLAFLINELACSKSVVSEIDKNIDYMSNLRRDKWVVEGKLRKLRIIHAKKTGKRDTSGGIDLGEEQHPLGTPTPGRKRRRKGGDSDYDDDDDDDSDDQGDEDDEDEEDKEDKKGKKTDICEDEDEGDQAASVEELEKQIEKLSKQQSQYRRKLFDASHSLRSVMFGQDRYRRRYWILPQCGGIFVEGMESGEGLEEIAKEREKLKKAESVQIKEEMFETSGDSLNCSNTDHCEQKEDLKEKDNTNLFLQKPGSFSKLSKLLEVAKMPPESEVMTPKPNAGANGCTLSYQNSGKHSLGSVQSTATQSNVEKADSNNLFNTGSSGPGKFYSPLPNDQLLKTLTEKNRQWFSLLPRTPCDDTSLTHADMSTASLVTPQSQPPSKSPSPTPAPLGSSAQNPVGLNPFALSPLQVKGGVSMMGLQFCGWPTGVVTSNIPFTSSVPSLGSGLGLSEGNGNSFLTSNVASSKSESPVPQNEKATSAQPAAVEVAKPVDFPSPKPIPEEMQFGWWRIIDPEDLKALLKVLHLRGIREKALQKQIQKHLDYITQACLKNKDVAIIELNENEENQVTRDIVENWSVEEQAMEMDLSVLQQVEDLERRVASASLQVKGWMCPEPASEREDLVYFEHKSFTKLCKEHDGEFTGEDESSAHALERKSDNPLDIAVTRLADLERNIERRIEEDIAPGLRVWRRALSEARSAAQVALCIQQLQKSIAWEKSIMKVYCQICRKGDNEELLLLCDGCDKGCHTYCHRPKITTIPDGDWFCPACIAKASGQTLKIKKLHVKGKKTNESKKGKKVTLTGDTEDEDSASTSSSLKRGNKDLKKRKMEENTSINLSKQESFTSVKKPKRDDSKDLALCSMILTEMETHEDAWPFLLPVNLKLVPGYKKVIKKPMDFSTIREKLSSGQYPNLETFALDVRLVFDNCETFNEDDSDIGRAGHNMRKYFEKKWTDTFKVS
How it was run: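 BAZ2B (50 nM) with biotin-H3(5-23)K14Ac peptide (50 nM) in PBS pH 7.4, 0.01% Tween-20, preformed 30 min, then compound 30 min at room temperature; top concentration 110uM. AlphaScreen streptavidin donor/nickel chelate acceptor beads (10 ug/mL final), 20 min dark, signal read.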
% is scaled to controls: 0 for no effect and ±100 for the full control effect; potency is read from the fitted curve at half-maximal effect; tags tell the direction and shape of the fitted curve.

Row | Structure (SMILES) | activity change, negative = inhibition | Potency
1 | COc1ccc([N+](=O)[O-])c(OC)c1C(=O)NC(=O)Nc1c(F)c(F)c(F)c(F)c1F | inactive: 0.44% | –
2 | CC(=O)c1cnn(-c2cc(Oc3ccc(F)cc3)ncn2)c1C | – | inconclusive: 11.2 µM [inhibitor, single point]
3 | CC1CCN(C(=O)Oc2ccccc2)CC1 | inactive: -3.61% | –
4 | O=C(COC(=O)CC1CCCC1)Nc1cc2c(cc1Cl)C(=O)c1ccccc1C2=O | – | active: 56.2 µM
5 | COc1ccc(N2CCN(S(=O)(=O)c3c(C)nc4sccn4c3=O)CC2)cc1 | inactive: 1.37% | –
6 | COc1ccc(NC(=O)c2cc(S(=O)(=O)Nc3ccc(OC)cc3)cs2)cc1 | – | inconclusive: 35.5 µM [inhibitor, partial curve]
7 | CCCCCCCCC1=NCCc2c1[nH]c1ccccc21 | – | inconclusive: 44.7 µM [inhibitor, partial curve]
8 | O=S1(=O)CC(O)C(N=Nc2c(O)n(Cc3ccccc3)c3ccccc23)C1 (stereo not given) | – | inconclusive: 79.4 µM [inhibitor, partial curve]
9 | Cc1ccc(C(=O)CN(CCCC(N)=O)S(=O)(=O)c2ccc([N+](=O)[O-])cc2)cc1 | inactive: 2.73% | –
10 | O=S(=O)(Nc1ccc(-c2ccc(N3CCCC3)nn2)cc1)c1ccccc1Cl | inactive: 0.448% | –
11 | O=C(COc1ccc(Br)cc1CNCCc1ccccc1)NCc1ccccc1 | – | inconclusive: 56.2 µM [inhibitor, partial curve, poor fit]
12 | COc1cc(-c2csc(N3CCOCC3)n2)cc(OC)c1OC | – | inconclusive: 70.8 µM [inhibitor, single point]
13 | COc1cc(OC)c(NC(=O)Nc2sc3nc4n(c(=O)c3c2C)CCC(C)CC4)cc1Cl (stereo not given) | inactive: -1.56% | –
14 | CNS(=O)(=O)c1cccc(C(=O)OCC(=O)N2c3ccccc3NC(=O)C2(C)C)c1 | – | inconclusive: 89.1 µM [inhibitor, single point]
15 | Cc1ccc(C)c(OCC(O)CN2CCN(CCN3C(=O)c4cccc5cccc(c45)C3=O)CC2)c1 (stereo not given) | – | active: 50.1 µM
16 | COc1ccc(N=C(c2ccccc2)c2c(C)[nH]n(-c3ccccc3)c2=O)c(OC)c1 | – | inconclusive: 11.2 µM [inhibitor, full curve]
17 | COc1ccccc1C(=O)N/C(=C/c1ccccc1)C(=O)Nc1ccc(C(=O)O)cc1 | inactive: 5.87% | –
18 | CCN(/C(N)=N/c1nc(C)cc(C)n1)c1ccccc1 | inactive: -3.41% | –
19 | O=C(CC(Nc1cccc(Cl)c1Cl)C(=O)O)c1ccccc1 (stereo not given) | inactive: -38.3% | –
20 | Cc1ccc2[nH]c(C(=O)O)c(NC(=O)CN3CCN(c4cccc(C)c4C)CC3)c2c1 | – | inconclusive: 50.1 µM [inhibitor, partial curve]
21 | Cc1csc(N/N=C/c2ccc([N+](=O)[O-])cc2)n1 | inactive: -9.16% | –
22 | Cc1ccc(C(=O)Nc2nccs2)cc1S(=O)(=O)N1CCCCC1 | – | inconclusive: 25.1 µM [inhibitor, full curve]
23 | COc1ccc(/C=N/Nc2snc(SC)c2C#N)cc1OC | – | active: 44.7 µM
24 | O=C(c1cnn(-c2ccccc2)c1)c1ccc2ccccc2c1O | – | inconclusive: 100 µM [inhibitor, single point]

Row | Structure (SMILES) | activity change, negative = inhibition | Potency
25 | COc1ccc(C(C)=O)c(OC(=O)c2ccco2)c1 | – | inconclusive: 89.1 µM [inhibitor, single point]
26 | Cc1cc(C)cc(C(=O)NC(=S)Nc2ccc3c(c2)OCCO3)c1 | – | inconclusive: 39.8 µM [inhibitor, full curve]
27 | CC(C)OCCCn1c(=O)c2ccccc2n2c(-c3ccc(F)c(F)c3)nnc12 | – | active: 50.1 µM
28 | Cc1ccc(S(=O)(=O)c2nnn3c2nc(NCc2ccc(F)cc2)c2sccc23)cc1C | inactive: -12.7% | –
29 | N#Cc1ccc(C(=O)Nc2cccc(NC(=O)c3ccco3)c2)c(F)c1 | – | inconclusive: 89.1 µM [inhibitor, single point]
30 | CCNC(=S)NNC(=O)c1ccccn1 | – | active: 3.16 µM
31 | COc1cc(C(c2c(NC(=O)c3ccco3)sc(C)c2C)N2CCOCC2)cc(OC)c1OC (stereo not given) | – | inconclusive: 50.1 µM [inhibitor, partial curve]
32 | Cc1nc2ncnn2c(N2CCN(C(c3ccccc3)c3ccccc3)CC2)c1C | – | inconclusive: 89.1 µM [inhibitor, single point]
33 | Cc1[nH]c2ccc(C(=O)NCCc3ccccc3Cl)cc2c1C | – | inconclusive: 44.7 µM [inhibitor, partial curve]
34 | CC(C)Oc1cccc(C(=O)NC(=S)Nc2ccccc2)c1 | – | inconclusive: 79.4 µM [inhibitor, single point]
35 | COc1cc(C(=O)NC(=S)N(C)Cc2ccccc2)cc(OC)c1OC | – | inconclusive: 70.8 µM [inhibitor, single point]
36 | Cc1cccc(OCC(=O)NCC2(N3CCN(C)CC3)CCCCC2)c1 | inactive: -8.88% | –
37 | O=C1/C(=C/c2ccc([N+](=O)[O-])cc2)CCc2ccccc21 | – | active: 31.6 µM
38 | O=C(c1ccccc1)c1n[nH]c(-c2ccccc2)cc1=O | inactive: 5.43% | –
39 | NC(=O)C(CC(=O)O)NC(=O)[C@@H]1CCCCNc2c(I)cc([N+](=O)[O-])cc2C(=O)N[C@@H](CO)C(=O)NCC(=O)N1 (stereo not given in full) | – | inconclusive: 89.1 µM [inhibitor, single point]
40 | Fc1ccc(C2NCCn3cccc32)cc1 (stereo not given) | – | inconclusive: 89.1 µM [inhibitor, single point]
41 | CN1CCN(CC(=O)NC23CC4CC(CC(C4)C2)C3)CC1 | – | inconclusive: 79.4 µM [inhibitor, partial curve]
42 | Cc1c(N2C(=O)CSC23C(=O)Nc2ccccc23)c(=O)n(-c2ccccc2)n1C (stereo not given) | inactive: 0.341% | –
43 | Cc1ccc(-c2nnn(CC(=O)N(Cc3cccs3)C(C(=O)NCC3CCCO3)c3ccco3)n2)o1 (stereo not given) | – | inconclusive: 100 µM [inhibitor, single point]
44 | Cc1c(C)n(CC(O)CN2CCCCC2)c2ccccc12 (stereo not given) | – | active: 44.7 µM
45 | COc1ccc(CN2CCC(C(=O)N(C)CCc3ccc(OC)c(OC)c3)CC2)c(OC)c1 | – | inconclusive: 89.1 µM [inhibitor, single point]
46 | C/[N+]([O-])=C\c1cccc(OCCN2CCN(c3ncc(C(F)(F)F)cc3Cl)CC2)c1 | – | inconclusive: 70.8 µM [inhibitor, single point]
47 | CC(=O)c1ccc(NC(=O)/C=C/c2ccc(C)o2)cc1 | – | inconclusive: 44.7 µM [inhibitor, partial curve]
48 | CCCCn1c(N)c(N(CC(C)C)C(=O)CSCC(=O)Nc2cccc(C)c2)c(=O)[nH]c1=O | inactive: -5.6% | –

Row | Structure (SMILES) | activity change, negative = inhibition | Potency
49 | COC(=O)c1cc2n3ccccc3c(C)c(-c3ccccc3)c-2c1C(=O)OC | – | active: 44.7 µM
50 | COc1ccc(CCNC(=O)c2ccc3ccccc3n2)cc1OC | – | inconclusive: 79.4 µM [inhibitor, single point]
51 | Cc1cc(C)c([N+](=O)[O-])cc1-c1ccc(/C=N/c2c(-c3ccco3)nc3ccccn23)o1 | – | active: 10 µM
52 | COc1cc(C)ccc1OCCCCNCc1ccccc1 | – | inconclusive: 89.1 µM [inhibitor, single point]
53 | CCOc1ccc(C2c3c(oc4ccccc4c3=O)C(=O)N2Cc2ccc3c(c2)OCO3)cc1 (stereo not given) | inactive: -7.48% | –
54 | O=C(N/N=C/C=C\c1ccco1)c1ccccn1 | – | active: 56.2 µM
55 | CN1CCN(CC(=O)Nc2ccc(OC(F)(F)F)cc2)CC1 | – | inconclusive: 79.4 µM [inhibitor, single point]
56 | CCCn1c(C(C)Nc2nc(-c3ccc(C)cc3)cs2)nc2ccccc21 (stereo not given) | – | inconclusive: 70.8 µM [inhibitor, single point]
57 | COC(=O)Cc1cc(=O)n2[nH]c(C(F)(F)F)nc2n1 | – | inconclusive: 89.1 µM [inhibitor, single point]
58 | CCOc1ccc(C(c2c(C)[nH]n(-c3ccccc3)c2=O)c2c(C)[nH]n(-c3ccccc3)c2=O)cc1OC | – | inconclusive: 11.2 µM [inhibitor, full curve]
59 | CCN(CC)CCNC(=O)c1ccc2c(=O)n3nc(Nc4cccc(Cl)c4C)sc3nc2c1 | – | inconclusive: 56.2 µM [inhibitor, partial curve]
60 | CC(C)(C)c1ccc(/C=C/C(=O)N2CCc3ccccc3C2)cc1 | – | inconclusive: 89.1 µM [inhibitor, single point]
61 | O=C(CSc1n[nH]c(-c2ccc(S(=O)(=O)N3CCCCC3)cc2)n1)Nc1nccs1 | – | inconclusive: 89.1 µM [inhibitor, single point]
62 | CC1CCCCN1C(=O)c1ccc(CS(=O)(=O)Cc2ccccc2)cc1 (stereo not given) | inactive: 0.587% | –
63 | O=C(NNc1cc(N2CCOCC2)nc(N2CCOCC2)n1)c1ccc(Cl)c(Cl)c1 | – | inconclusive: 79.4 µM [inhibitor, single point]
64 | O=C1c2cccnc2C(=O)N1Cc1ccc(S(=O)(=O)N2CCOc3ccc(Cl)cc32)cc1 | – | inconclusive: 79.4 µM [inhibitor, single point]
65 | CCN1CCN(c2oc(-c3ccccc3C)nc2S(=O)(=O)c2ccccc2)CC1 | – | inconclusive: 44.7 µM [inhibitor, partial curve]
66 | CN(C)CCCN(C(=O)c1sc2ccccc2c1Cl)c1nc2ccc(F)cc2s1 | – | inconclusive: 89.1 µM [inhibitor, single point]
67 | COc1ccc(Cn2nnc3c(=O)[nH]c(C(=O)NCCc4ccc(F)cc4)nc32)cc1OC | inactive: -1.03% | –
68 | Cc1cc(=O)oc(C)c1C(=O)NCC(C)NC(=O)c1c(C)cc(=O)oc1C (stereo not given) | – | inconclusive: 89.1 µM [inhibitor, single point]
69 | COc1ccc(NC(=O)CCSc2nc(C)cs2)cc1 | – | inconclusive: 89.1 µM [inhibitor, single point]
70 | CCOC(=O)c1[nH]c2ccccc2c1NC(=S)Nc1cccc(C)c1C | – | inconclusive: 50.1 µM [inhibitor, partial curve]

Source: PubChem BioAssay AID504333 (National Center for Advancing Translational Sciences (NCATS), 2011)
